About 2,200 (0.71%) of roughly 310,000 compounds showed an effect of 50% or more. The effect is printed as a negative number. The list shows a part of the results. Where a SMILES comes first, the peptide text is derived from it. The star is where a group is joined. OBn = c1ccc(CO*)cc1
These compounds were tested against human ether-à-go-go-related gene (hERG) potassium channel (human, UniProt Q12809) (assay: primary screen, population patch clamp on CHO cells stably expressing hERG).
Sequence of human ether-à-go-go-related gene (hERG) potassium channel (Q12809 whole entry, looked up): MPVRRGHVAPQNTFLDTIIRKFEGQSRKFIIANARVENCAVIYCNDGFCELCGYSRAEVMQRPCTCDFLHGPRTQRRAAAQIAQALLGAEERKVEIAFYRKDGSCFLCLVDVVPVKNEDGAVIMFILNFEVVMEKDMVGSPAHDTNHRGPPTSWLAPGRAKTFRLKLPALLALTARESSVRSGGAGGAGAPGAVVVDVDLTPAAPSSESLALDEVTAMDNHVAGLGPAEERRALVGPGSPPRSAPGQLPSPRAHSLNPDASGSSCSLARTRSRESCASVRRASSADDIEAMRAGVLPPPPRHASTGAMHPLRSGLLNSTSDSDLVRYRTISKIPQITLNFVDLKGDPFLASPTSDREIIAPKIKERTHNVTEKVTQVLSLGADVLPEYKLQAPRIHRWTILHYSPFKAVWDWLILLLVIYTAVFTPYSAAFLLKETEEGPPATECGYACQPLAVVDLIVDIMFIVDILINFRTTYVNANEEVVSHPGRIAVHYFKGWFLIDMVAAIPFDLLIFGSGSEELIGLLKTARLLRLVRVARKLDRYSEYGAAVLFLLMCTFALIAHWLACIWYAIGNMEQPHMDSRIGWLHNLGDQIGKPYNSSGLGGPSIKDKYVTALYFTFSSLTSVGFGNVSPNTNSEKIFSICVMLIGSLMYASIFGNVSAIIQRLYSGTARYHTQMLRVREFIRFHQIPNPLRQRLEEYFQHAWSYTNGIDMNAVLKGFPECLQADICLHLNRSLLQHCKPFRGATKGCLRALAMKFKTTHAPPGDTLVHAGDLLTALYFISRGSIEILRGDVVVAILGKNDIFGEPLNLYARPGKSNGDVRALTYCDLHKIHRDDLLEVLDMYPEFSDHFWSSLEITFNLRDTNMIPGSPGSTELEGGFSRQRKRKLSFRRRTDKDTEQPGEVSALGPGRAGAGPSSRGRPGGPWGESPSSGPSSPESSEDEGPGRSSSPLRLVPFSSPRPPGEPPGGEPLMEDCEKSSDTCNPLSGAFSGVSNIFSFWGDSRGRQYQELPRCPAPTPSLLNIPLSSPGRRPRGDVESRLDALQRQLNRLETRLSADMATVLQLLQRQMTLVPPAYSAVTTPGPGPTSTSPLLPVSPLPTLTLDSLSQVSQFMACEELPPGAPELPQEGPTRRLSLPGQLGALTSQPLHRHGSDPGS

Question: Which “hERG current change (%, negative = inhibition) at 1uM” value does the source give for `Cc1cccc(N(CC(=O)NCCc2ccccc2)C(=O)c2csnn2)c1` here?
Answer: Its value is 10%.

Question: `Cc1ccc2[nH]c3c(c2c1)CN(C(C)C)CC3` was tested. Which “hERG current change (%, negative = inhibition) at 1uM” value did it give?
Answer: Its value is 10.6%.

Question: `CSc1ccc(C(=O)C2CCCN(C(=O)c3nn(C)c(=O)c4ccccc34)C2)cc1` (stereo not shown) was tested. Which “hERG current change (%, negative = inhibition) at 1uM” value did it give?
Answer: The value was -17.4%.

Question: How did the “hERG current change (%, negative = inhibition) at 1uM” value turn out when `O=C(OCC(=O)c1c[nH]c2ccccc12)c1ccc(Br)o1` was run?
Answer: Its value is -13.4%.

Question: For `COc1cc(NC(=O)c2cc([N+](=O)[O-])ccc2NC(=O)CNC2CCCCC2C)cc(OC)c1` (stereo not shown), which “hERG current change (%, negative = inhibition) at 1uM” value is on record?
Answer: The value was 17.4%.

Question: Which “hERG current change (%, negative = inhibition) at 1uM” value does the source give for `COC(=O)[C@H](Cc1ccccc1)NC(=O)[C@@H](N)CC(=O)OCc1ccccc1.[Cl-]` (H-Asp(OBn)-Phe-OMe) here?
Answer: Its value is 19.7%.

Question: With `CC(C)OCc1ccc(C(=O)N2CCN(S(=O)(=O)c3ccc(Br)s3)CC2)cc1` as the compound, how does the “hERG current change (%, negative = inhibition) at 1uM” value read?
Answer: The value was 6.71%.

Question: Which “hERG current change (%, negative = inhibition) at 1uM” value does the source give for `CCOC(=O)CNC(=O)CSc1nnc(-c2c[nH]c3ccccc23)n1CC` here?
Answer: Its value is 4.73%.

Question: For `COc1cc(/C=N/NC(=O)c2csc3c2CCCC3)cc(OC)c1O`, which “hERG current change (%, negative = inhibition) at 1uM” value is on record?
Answer: The value was 9.45%.

Question: With `NC(=O)c1ccc(NC(=O)C2CCCO2)cc1` (stereo not shown) as the compound, how does the “hERG current change (%, negative = inhibition) at 1uM” value read?
Answer: The value was 2.68%.

Question: How did the “hERG current change (%, negative = inhibition) at 1uM” value turn out when `CC(Oc1ccc(Cl)cc1Cl)c1ccn[nH]1` (stereo not shown) was run?
Answer: Its value is 4.3%.

Question: For `CCNC(=O)N1CCNC(=O)C1CC(=O)OC` (stereo not shown), which “hERG current change (%, negative = inhibition) at 1uM” value is on record?
Answer: The value was 9.95%.

Question: For `CC/S(=N\S(=O)(=O)c1ccc(C)cc1)c1ccccc1` (stereo not shown), which “hERG current change (%, negative = inhibition) at 1uM” value is on record?
Answer: Its value is 11.7%.

Question: Which “hERG current change (%, negative = inhibition) at 1uM” value does the source give for `O=C(NCCCl)c1ccc(OCc2ccccc2)cc1Cl` here?
Answer: Its value is 12.5%.

Question: `COC(=O)C1=C(c2ccc(OC)c(OC)c2)C[C@@H]2CC[C@H]1N2C(=O)NCc1ccc(F)cc1` was tested. Which “hERG current change (%, negative = inhibition) at 1uM” value did it give?
Answer: The value was 1.04%.

Question: With `CCn1c(=O)n(CC(=O)Nc2cc(OC)ccc2OC)c(=O)c2ccccc21` as the compound, how does the “hERG current change (%, negative = inhibition) at 1uM” value read?
Answer: The value was 12.1%.

Question: `CCS(=O)(=O)N1CCN(C(=O)c2cccs2)CC1` was tested. Which “hERG current change (%, negative = inhibition) at 1uM” value did it give?
Answer: Its value is 4.6%.

Question: With `O=C(COC(=O)/C=C/c1ccc(OC(F)F)cc1)NCCN1C(=O)CSC1=O` as the compound, how does the “hERG current change (%, negative = inhibition) at 1uM” value read?
Answer: Its value is -13.5%.

Question: `CNC(=O)/C=C/c1cc(C(=O)c2ccc(Cl)cc2Cl)cn1C` was tested. Which “hERG current change (%, negative = inhibition) at 1uM” value did it give?
Answer: The value was 14.9%.

Question: `O=C(NCc1cccnc1)c1ccccc1Br` was tested. Which “hERG current change (%, negative = inhibition) at 1uM” value did it give?
Answer: Its value is -10.5%.

Question: `CCOC(=O)C(NCCCCl)c1ccccc1` (stereo not shown) was tested. Which “hERG current change (%, negative = inhibition) at 1uM” value did it give?
Answer: The value was 5.7%.

Question: With `CN(C)C(=O)c1cc([N+](=O)[O-])cc([N+](=O)[O-])c1N(C)C` as the compound, how does the “hERG current change (%, negative = inhibition) at 1uM” value read?
Answer: The value was 8.23%.

Question: Which “hERG current change (%, negative = inhibition) at 1uM” value does the source give for `COc1ccc(C(=O)N/C(=C\c2cccc3ccccc23)C(=O)N2CCN(C)CC2)cc1` here?
Answer: The value was -20.8%.

Question: `COc1ccccc1/C=C/C(=O)c1cc(Br)ccc1OC(=O)c1ccco1` was tested. Which “hERG current change (%, negative = inhibition) at 1uM” value did it give?
Answer: The value was 14.8%.

Question: For `O=C(Nc1ccccc1)c1ccc(-c2ccc(Br)cc2)o1`, which “hERG current change (%, negative = inhibition) at 1uM” value is on record?
Answer: Its value is 11.4%.

Question: With `CCOC(=O)C1CCCN(C(=O)c2cn(CC)c3ccc(S(=O)(=O)N(C)C)cc3c2=O)C1` (stereo not shown) as the compound, how does the “hERG current change (%, negative = inhibition) at 1uM” value read?
Answer: The value was 10.6%.

Question: `COc1ccc(C2C(C(C)=O)=C(O)C(=O)N2C)c(OC)c1` (stereo not shown) was tested. Which “hERG current change (%, negative = inhibition) at 1uM” value did it give?
Answer: Its value is 7.38%.

Question: With `COc1ccc(-c2nc3c(s2)CCc2onc(-c4ccc(OC)cc4)c2-3)cc1` as the compound, how does the “hERG current change (%, negative = inhibition) at 1uM” value read?
Answer: The value was -2.16%.

Question: For `CC(C)CNC(=O)CC(=O)NN=C1CCCC1`, which “hERG current change (%, negative = inhibition) at 1uM” value is on record?
Answer: The value was 13.9%.

Question: With `COC(=O)CSc1nnc(CCc2ccccc2)n1C` as the compound, how does the “hERG current change (%, negative = inhibition) at 1uM” value read?
Answer: The value was 11.3%.

Question: Which “hERG current change (%, negative = inhibition) at 1uM” value does the source give for `N#C/C(=N\Nc1ccc(S(=O)(=O)N2CCOCC2)cc1)C(N)=S` here?
Answer: The value was 15.9%.

Question: With `COc1cc(OC)c(OC)cc1CN1CCN(C(=O)Cc2ccccc2)CC1.O=C(O)C(=O)O` as the compound, how does the “hERG current change (%, negative = inhibition) at 1uM” value read?
Answer: The value was 10.3%.

Question: Which “hERG current change (%, negative = inhibition) at 1uM” value does the source give for `CC(c1ccco1)N(C(=O)c1ccc(Cl)c([N+](=O)[O-])c1)c1ccccn1` (stereo not shown) here?
Answer: The value was 7.02%.

Question: Which “hERG current change (%, negative = inhibition) at 1uM” value does the source give for `CCOc1cc(N2CCOCC2)c(OCC)cc1NC(=O)CCS(=O)(=O)c1ccc(Cl)cc1` here?
Answer: Its value is -11.4%.

Question: Which “hERG current change (%, negative = inhibition) at 1uM” value does the source give for `Cl.O=C(c1cccc(S(=O)(=O)N2CCCCC2)c1)N1CCN(Cc2ccccc2)CC1` here?
Answer: The value was 6.64%.

Question: With `CCn1c(COc2ccccc2)nc2ccccc21` as the compound, how does the “hERG current change (%, negative = inhibition) at 1uM” value read?
Answer: The value was 17%.

Question: How did the “hERG current change (%, negative = inhibition) at 1uM” value turn out when `N#CC(C#N)=C1C=CC=CN1/C(=C\c1ccco1)C(=O)c1ccccc1` was run?
Answer: Its value is -4.77%.

Question: How did the “hERG current change (%, negative = inhibition) at 1uM” value turn out when `NC(=O)NC(=O)COC(=O)c1ccc(OC(F)(F)F)cc1` was run?
Answer: The value was -3.74%.

Question: Which “hERG current change (%, negative = inhibition) at 1uM” value does the source give for `COc1cc([N+](=O)[O-])ccc1NC(=O)Cn1ccsc1=N.O=C(O)C(=O)O` here?
Answer: The value was 12.9%.

Question: For `COc1ccc(C2CCCN2C(=O)Nc2ccc(Cl)cc2)cc1OC` (stereo not shown), which “hERG current change (%, negative = inhibition) at 1uM” value is on record?
Answer: Its value is 0.443%.

Question: With `Cc1sc(NC(=O)CSc2nnc(N)s2)c(C#N)c1C` as the compound, how does the “hERG current change (%, negative = inhibition) at 1uM” value read?
Answer: The value was 20.1%.

Question: Which “hERG current change (%, negative = inhibition) at 1uM” value does the source give for `CC(=O)N1c2ccc(S(=O)(=O)N3CCC(C(=O)N4CCN(c5cccc(C(F)(F)F)c5)CC4)CC3)cc2CC1C` (stereo not shown) here?
Answer: The value was 17.7%.

Question: `CCN(CC)C(=O)c1cc2cc(Br)ccc2oc1=O` was tested. Which “hERG current change (%, negative = inhibition) at 1uM” value did it give?
Answer: The value was 5.75%.

Source: PMC4336329 (PLoS ONE, 2015)
